pIC50: −log10 of the molar value. Read-outs that look alike come from different tables or passages of the source. For at least one compound, name, drawing or mass did not settle the structure.
Tested on: NGF receptors on PC12 cells (TrkA+p75)
Experiment: NGF binding (125I-NGF) using PC12 cells
Design: species or system rat
Method: NGF binding was evaluated using methods familiar to those who are skilled in the art. Briefly, cells expressing one or both NGF receptors (PC12: TrkA+p75; A875: p75 alone; HEK/CHO_trkA: TrkA alone) were harvested by replacing the medium with the cell dissociation buffer (Amersham) and incubating at 37° C. for 15 min. […] For most compounds, multiple dose-response curves were generated.
The IC50 data shown in Tables A-J were acquired using the procedure described herein using PC12 cells.

[1] = Table A (Formula Ia), NGF binding, PC12 cells, read-out: IC50
[2] = Table D (Formula III), NGF binding, PC12 cells, read-out: IC50
[3] = Table B (Formula Ib), NGF binding, PC12 cells, read-out: IC50

O=C(O)c1ccc2c(c1)C(=O)N(c1ccc(S(=O)(=O)O)c3ccccc13)C2=O [Compound 9]
pIC50 [1]: < 4.30

Cc1cc2c(cc1-c1cc3c(cc1C)C(=O)N(CCCC(=O)O)C3=O)C(=O)N(CCCC(=O)O)C2=O [Compound 24C]
pIC50 [2]: 4.54 to 5.00

O=C(O)CCCCN1C(=O)c2ccc(-c3ccc4c(c3)C(=O)N(CCCCC(=O)O)C4=O)cc2C1=O [Compound 10C]
pIC50 (Table 2, read-out: NGF Binding Assay IC50): 5.70 to 7.00
pIC50 [2]: > 5.00

O=C(O)c1ccc(CN2C(=O)c3ccc(C(=O)O)cc3C2=O)cc1 [Compound 11]
pIC50 [1]: < 4.30

N#Cc1cccc(N2C(=O)c3cccc(O)c3C2=O)c1 [Compound 16]
pIC50 [1]: < 4.30

Nc1ccc2c(c1)C(=O)N(c1cc(C(=O)O)ccc1Cl)C2=O [Compound 17]
pIC50 [1]: < 4.30

O=C(O)c1ccc(Cl)c(N2C(=O)c3ccc(-c4ccc5c(c4)C(=O)N(c4cc(C(=O)O)ccc4Cl)C5=O)cc3C2=O)c1 [Compound 2C]
pIC50 [2]: 4.54 to 5.00

Nc1ccc(C(=O)O)cc1-n1c(=O)c2cc3c(=O)n(-c4cc(C(=O)O)ccc4N)c(=O)c3cc2c1=O [Compound 3B]
pIC50 (Table C (Formula II), NGF binding, PC12 cells, read-out: IC50): 4.54 to 5.00

Cn1nnnc1-c1ccc2c3c(cccc13)C(=O)N(CCCC(=O)O)C2=O [Compound 49G]
pIC50 (Table J (Formula VIII), NGF binding, PC12 cells, read-out: IC50): > 5.00

O=C(O)CCCN1Cc2cc(Br)ccc2C1=O [Compound 3A]
pIC50 [3]: < 4.30

O=C(O)c1ccc(Cl)c(N2C(=O)c3ccc(C(=O)c4ccc5c(c4)C(=O)N(c4cc(C(=O)O)ccc4Cl)C5=O)cc3C2=O)c1 [Compound 4C]
pIC50 [2]: 4.54 to 5.00

O=C1c2ccc(-c3ccc4c(c3)C(=O)N(CCS(=O)(=O)O)C4=O)cc2C(=O)N1CCS(=O)(=O)O [Compound 13C]
pIC50 [2]: > 5.00

O=C(O)c1ccc2c(c1)C(=O)N(c1ccc(N3C(=O)c4ccc(C(=O)O)cc4C3=O)c(S(=O)(=O)O)c1)C2=O [Compound 47C]
pIC50 (Table E (Formula IIIA), NGF binding, PC12 cells, read-out: IC50): 4.30 to 4.52

O=C(O)c1ccc(Cl)c(N2C(=O)c3ccc([N+](=O)[O-])cc3C2=O)c1 [Compound 7]
pIC50 [1]: < 4.30

O=C(O)CCCn1c(=O)c2ccc3nc4n(c5ccc(c1=O)c2c35)C(=O)CC4 [Compound 3F]
pIC50 (Table H (Formula VI), NGF binding, PC12 cells, read-out: IC50): > 5.00

CCOC(=O)c1cccc(N2Cc3cc(C#N)ccc3C2=O)c1 [Compound 7A]
pIC50 [3]: < 4.30

CCOC(=O)CCCN1C(=O)c2ccc(-c3ccc4c(c3)C(=O)N(CCCC(=O)OCC)C4=O)cc2C1=O [Compound 8C]
pIC50 [2]: > 5.00

— patent US20090082368A1, “METHODS OF MODULATING NEUROTROPHIN-MEDIATED ACTIVITY” (PainCeptor Pharma Corporation, priority 2007, published 2009)
